Experimental data: the supplement of paper PMC12217912
Some of the results follow. The full chains were built here from the parent and the listed change. Values near 0.05 are background.

B1: TEV protease; numbered along this chain (parent)
chain: MGESLFKGPRDYNPISSSICHLTNESDGHTTSLYGIGFGPFIITNKHLFRRNNGTLVVQSLHGVFKVKDTTTLQQHLVDGRDMIIIRMPKDFPPFPQKLKFREPQREERICLVTTNFQTKSMSSMVSDTSCTFPSGDGIFWKHWIQTKDGQCGSPLVSTRDGFIVGIHSASNFTNTNNYFTSVPKNFMELLTNQEAQQWVSGWRLNADSVLWGGHKVFMVKPEEPFQPVKEATQL

Variants of: B1
Test: raw area under fraction-flipped curve 0-4 h after induction (AUC4h, not background-subtracted), DNA-recorder readout of cleavage of the substrate (dimensionless); higher = more cleavage of the substrate by the protease variant
Details: temperature: 34 °C; time window: 0-4 h after rhamnose induction
Method: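 In vivo DNA recorder in E. coli TOP10(DE3) ΔrhaA at 34 °C. Each TEVp single-site mutant (parent TEVp 0) is paired with a single-site variant of the 7-mer TEVs (canonical ENLYFQ|S). The substrate sits between flexible linkers in a Bxb1-sfGFP-TEVs-SsrA fusion, so cleavage stabilises Bxb1 and speeds flipping of a recombination array, read by NGS. The value is the raw area under the fraction-flipped curve over 0-4 h after rhamnose induction (AUC4h), with ≥20 reads per time point. It is not background-subtracted; inactive controls average about 0.047.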
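Further: Bxb1 expression induced with 0.2% (w/v) L-rhamnose at OD600 near 0.5, cultures sampled hourly, flipped fraction per protease–substrate barcode pair counted by paired-end Illumina sequencing.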

Row | Variant | area with substrate ENAYFQS | area with substrate ENCYFQS | area with substrate ENDYFQS | area with substrate ENEYFQS | area with substrate ENFYFQS | area with substrate ENGYFQS | area with substrate ENHYFQS | area with substrate ENIYFQS | area with substrate ENKYFQS | area with substrate ENPYFQS | area with substrate ENQYFQS | area with substrate ENRYFQS | area with substrate ENSYFQS | area with substrate ENTYFQS | area with substrate ENVYFQS | area with substrate ENWYFQS | area with substrate ENYYFQS | area with substrate ENNYFQS | area with substrate ENMYFQS
1 | MGESLFKGPRDYNPISSSICHLTNESDGHTTSLYGIGFGPFIITNKHLFRRNNGTLVVQSLHGVFKVKDTTTLQQHLVDGRDMIIIRMPKDFPPFPQKLKFREPQREERFCLVTTNFQTKSMSSMVSDTSCTFPSGDGIFWKHWIQTKDGQCGSPLVSTRDGFIVGIHSASNFTNTNNYFTSVPKNFMELLTNQEAQQWVSGWRLNADSVLWGGHKVFMVKPEEPFQPVKEATQL [I110F] | 0.0503 | 0.0538 | 0.0575 | 0.0567 | 0.0524 | 0.0469 | 0.0572 | 0.0515 | 0.0559 | 0.0364 | 0.0467 | 0.051 | 0.0616 | 0.0547 | 0.0587 | 0.0372 | 0.064 |  | 
2 | MGESLFKGPRDYNPISSSICHLTNESDGHTTSLYGIGFGPFIITNKHLFRRNNGTLVVQSLHGVFKVKDTTTLQQHLVDGRDMIIIRMPKDFPPFPQKVKFREPQREERICLVTTNFQTKSMSSMVSDTSCTFPSGDGIFWKHWIQTKDGQCGSPLVSTRDGFIVGIHSASNFTNTNNYFTSVPKNFMELLTNQEAQQWVSGWRLNADSVLWGGHKVFMVKPEEPFQPVKEATQL [L99V] | 0.083 | 0.0844 | 0.0669 | 0.0599 | 0.0732 |  | 0.0679 | 0.105 | 0.0772 | 0.0608 | 0.0643 | 0.0652 | 0.073 |  | 0.0692 |  |  |  | 
3 | MGESLFKGPRDYNPISSSICHLTNESDGHTTSLYGIGFGPFIITNKHLFRRNNGTLVVQSLHGVFKVKDTTTLQQHLVDGRDMIIIRMPKDFPPFPQKNKFREPQREERICLVTTNFQTKSMSSMVSDTSCTFPSGDGIFWKHWIQTKDGQCGSPLVSTRDGFIVGIHSASNFTNTNNYFTSVPKNFMELLTNQEAQQWVSGWRLNADSVLWGGHKVFMVKPEEPFQPVKEATQL [L99N] | 0.06 |  | 0.0691 | 0.0492 |  |  |  | 0.0755 |  |  | 0.0508 | 0.0545 | 0.0774 |  |  |  |  |  | 
4 | MGESLFKGPRDYNPISSSICHLTNESDGHTTSLYGIGFGPFIITNKHLFRRNNGTLVVQSLHGVFKVKDTTTLQQHLVDGRDMIIIRMPKDFPPFPQKEKFREPQREERICLVTTNFQTKSMSSMVSDTSCTFPSGDGIFWKHWIQTKDGQCGSPLVSTRDGFIVGIHSASNFTNTNNYFTSVPKNFMELLTNQEAQQWVSGWRLNADSVLWGGHKVFMVKPEEPFQPVKEATQL [L99E] | 0.06 |  | 0.0831 |  | 0.0514 |  |  |  | 0.0687 |  |  |  | 0.0692 |  | 0.0579 |  |  | 0.061 | 
5 | MGESLFKGPRDYNPISSSICHLTNESDGHTTSLYGIGFGPFIITNKHLFRRNNGTLVVQSLHGVFKVKDTTTLQQHLVDGRDMIIIRMPKDFPVFPQKLKFREPQREERICLVTTNFQTKSMSSMVSDTSCTFPSGDGIFWKHWIQTKDGQCGSPLVSTRDGFIVGIHSASNFTNTNNYFTSVPKNFMELLTNQEAQQWVSGWRLNADSVLWGGHKVFMVKPEEPFQPVKEATQL [P94V] | 0.0584 | 0.0693 | 0.0628 | 0.0643 | 0.0638 |  |  | 0.0999 | 0.0493 |  | 0.0474 |  | 0.0537 | 0.0485 | 0.103 | 0.054 | 0.082 |  | 
6 | MGESLFKGPRDYNPISSSICHLTNESDGHTTSLYGIGFGPFIITNKHLFRRNNGTLVVQSLHGVFKVKDTTTLQQHLVDGRDMIIIRMPKDFPNFPQKLKFREPQREERICLVTTNFQTKSMSSMVSDTSCTFPSGDGIFWKHWIQTKDGQCGSPLVSTRDGFIVGIHSASNFTNTNNYFTSVPKNFMELLTNQEAQQWVSGWRLNADSVLWGGHKVFMVKPEEPFQPVKEATQL [P94N] | 0.0521 | 0.0652 | 0.0544 |  |  | 0.0591 |  |  |  | 0.0586 | 0.0711 |  |  | 0.0705 |  |  | 0.0689 | 0.0518 | 0.0816
7 | MGESLFKGPRDYNPISSSICHLTNESDGHTTSLYGIGFGPFIITNKHLFRRNNGTLVVQSLHGVFKVKDTTTLQQHLVDGRDMIIIRMPKDFPPFPQKLKFRDPQREERICLVTTNFQTKSMSSMVSDTSCTFPSGDGIFWKHWIQTKDGQCGSPLVSTRDGFIVGIHSASNFTNTNNYFTSVPKNFMELLTNQEAQQWVSGWRLNADSVLWGGHKVFMVKPEEPFQPVKEATQL [E103D] | 0.0626 | 0.0718 |  |  |  | 0.0406 | 0.0537 |  |  |  | 0.0554 |  | 0.0531 | 0.0714 |  |  |  |  | 
8 | MGESLFKGPRDYNPISSSICHLTNESDGHTTSLYGIGFGPFIITNKHLFRRNNGTLVVQSLHGVFKVKDTTTLQQHLVDGRDMIIIRMPKDFPPFPQKLKFRIPQREERICLVTTNFQTKSMSSMVSDTSCTFPSGDGIFWKHWIQTKDGQCGSPLVSTRDGFIVGIHSASNFTNTNNYFTSVPKNFMELLTNQEAQQWVSGWRLNADSVLWGGHKVFMVKPEEPFQPVKEATQL [E103I] | 0.0354 |  | 0.0571 | 0.0588 |  | 0.0499 |  |  | 0.0694 | 0.0634 | 0.06 | 0.0625 | 0.0664 |  | 0.0743 |  |  | 0.0527 | 
9 | MGESLFKGPRDYNPISSSICHLTNESDGHTTSLYGIGFGPFIITNKHLFRRNNGTLVVQSLHGVFKVKDTTTLQQHLVDGRDMIIIRMPKDFPPFPQKLKFRMPQREERICLVTTNFQTKSMSSMVSDTSCTFPSGDGIFWKHWIQTKDGQCGSPLVSTRDGFIVGIHSASNFTNTNNYFTSVPKNFMELLTNQEAQQWVSGWRLNADSVLWGGHKVFMVKPEEPFQPVKEATQL [E103M] | 0.0642 | 0.0634 | 0.0641 | 0.0608 | 0.0802 | 0.0501 | 0.0638 | 0.121 |  |  | 0.0569 | 0.0564 | 0.0752 | 0.0565 | 0.0723 | 0.035 |  | 0.0516 | 
